In paper PMC10668032:
The other results are listed elsewhere or left out. At the low end of the ranking, values are background and their order means little.

Each sequence was assayed against SIX1 homeodomain (reference allele) (UniProt Q15475) (assay: universal protein binding microarray). Settings: Universal all-10-mer PBM (8x60K, AMADID 030236), 300 nM GST-tagged protein, Alexa Fluor 488 anti-GST; buffer, salt, pH and temperature not stated; high values mean tight binding; most listed sequences are background and not binding sites; double strand, one strand shown.
In the case of ACTGGGTG, the binding signal is reported as 0.159 E-score. For GGCTGGAC, the binding signal was -0.302 E-score. In the case of CATACTCG, the binding signal is reported as 0.0406 E-score. With CAGCCCAG the binding signal was -0.0872 E-score. GAAAAGCC gave a binding signal of -0.146 E-score. For AAACATAC, the binding signal was 0.0509 E-score. In the case of GGACAAAC, the binding signal is reported as -0.284 E-score. AACTCCTA was tested, and the binding signal was -0.12 E-score. Sequence AGCAGAGC has a binding signal of -0.217 E-score. Sequence CGAGATCA has a binding signal of 0.287 E-score. AATTCGAA gave a binding signal of -0.226 E-score. For CATGAATG, the binding signal was -0.0161 E-score. For CGCTAAAA, the binding signal was -0.135 E-score. With AGTCCGCA the binding signal was -0.185 E-score. With ATAAGATC the binding signal was 0.222 E-score. Work on AGTAGTTG yielded a binding signal of -0.0451 E-score. AACTTCCC showed a binding signal of -0.177 E-score. In the case of ACCACAAG, the binding signal is reported as -0.0734 E-score. In the case of ACCAATTA, the binding signal is reported as -0.0296 E-score. Sequence CTATATAC has a binding signal of 0.275 E-score. In the case of ATCCCTTA, the binding signal is reported as 0.278 E-score. Sequence CTCGCCGA has a binding signal of -0.0385 E-score. In the case of AACTTTGT, the binding signal is reported as -0.264 E-score. ATCACGGA was tested, and the binding signal was 0.288 E-score. CGACCAAG gave a binding signal of -0.0073 E-score. Sequence CAAAATTG has a binding signal of -0.139 E-score. For AAATCCGA, the binding signal was 0.101 E-score. For GCTGCAAC, the binding signal was -0.0866 E-score. GTTTAAGA showed a binding signal of -0.153 E-score. ATTGTCCA gave a binding signal of -0.0461 E-score. In the case of CTTCGGTA, the binding signal is reported as -0.184 E-score. Sequence GCTCTCCA has a binding signal of -0.104 E-score. Work on ACCTCCAG yielded a binding signal of -0.0338 E-score. ATGCCAGG showed a binding signal of 0.161 E-score. Work on ACCGGGGC yielded a binding signal of -0.0943 E-score. ATGCAATA gave a binding signal of 0.192 E-score. With ATTCAATG the binding signal was -0.0908 E-score. In the case of AGATAACT, the binding signal is reported as 0.0409 E-score. AGTCAATC showed a binding signal of -0.0728 E-score. GTAGCAAA showed a binding signal of -0.256 E-score. In the case of AGTGCCTA, the binding signal is reported as -0.0693 E-score. ATACTAAT gave a binding signal of 0.29 E-score. With ACATAGCA the binding signal was -0.0739 E-score. With GTGGGTGA the binding signal was -0.0076 E-score. In the case of CGAACACA, the binding signal is reported as -0.101 E-score. In the case of GAGCTCGC, the binding signal is reported as 0.0177 E-score. AACACCCC was tested, and the binding signal was 0.268 E-score. With ATCCCCCG the binding signal was 0.403 E-score. CGATAGCG gave a binding signal of 0.228 E-score. For CCCGGGGA, the binding signal was 0.13 E-score. AAGCTAGC gave a binding signal of -0.02 E-score. ATCACCTC was tested, and the binding signal was 0.268 E-score. Work on GCCGAACC yielded a binding signal of -0.0451 E-score. For GTAGTGTA, the binding signal was 0.131 E-score. ACAAAGTC gave a binding signal of -0.365 E-score. TAATAGAA showed a binding signal of 0.0619 E-score. GGTAGGAA was tested, and the binding signal was -0.222 E-score. ACGGTGCT showed a binding signal of -0.0983 E-score. With GCGATATA the binding signal was 0.399 E-score. Sequence GCTGCTGA has a binding signal of -0.102 E-score. In the case of ATTTGTGA, the binding signal is reported as 0.037 E-score. Work on CTGCATAA yielded a binding signal of -0.138 E-score. In the case of CGGGCGAC, the binding signal is reported as -0.0496 E-score. In the case of ATACAGGC, the binding signal is reported as 0.132 E-score. In the case of GCAAGAGA, the binding signal is reported as -0.006 E-score. In the case of CGGTGGCA, the binding signal is reported as -0.0665 E-score. Sequence CCTAACAG has a binding signal of -0.0959 E-score. GCAACTTA gave a binding signal of -0.209 E-score. AGCGTTCA was tested, and the binding signal was -0.326 E-score. With CACACGCG the binding signal was 0.0907 E-score. Sequence ATTACATA has a binding signal of 0.153 E-score. In the case of AATCTACG, the binding signal is reported as -0.0521 E-score. Sequence ATAATACA has a binding signal of 0.302 E-score. AATATATT gave a binding signal of 0.0272 E-score. With ATGTTGAC the binding signal was -0.0159 E-score. In the case of AGCCTATA, the binding signal is reported as 0.128 E-score. TGTCGAAA gave a binding signal of 0.0107 E-score. CTTGCCCA gave a binding signal of -0.0726 E-score. In the case of ACGAGAAG, the binding signal is reported as -0.00441 E-score. TCGTATAA showed a binding signal of 0.194 E-score. AATTCATC showed a binding signal of -0.0054 E-score. Sequence GCCCTAAA has a binding signal of -0.32 E-score. For AGAATCAG, the binding signal was 0.0701 E-score. Sequence CGCAGAAC has a binding signal of -0.146 E-score. Sequence CTCGTTCC has a binding signal of -0.00777 E-score. For AGTTGCAT, the binding signal was 0.102 E-score. Sequence ATCGGGGA has a binding signal of 0.252 E-score. AGCTAGTC showed a binding signal of -0.0486 E-score. Work on CGATTGTC yielded a binding signal of -0.251 E-score. Sequence CCGCACGA has a binding signal of 0.0947 E-score. With GCTCATAC the binding signal was 0.0544 E-score. Sequence AGGGGTTG has a binding signal of 0.000395 E-score. Work on TGCTAGAA yielded a binding signal of -0.17 E-score. AAGTATCT gave a binding signal of 0.266 E-score. For CATATTGG, the binding signal was 0.101 E-score. In the case of ATTCCGCG, the binding signal is reported as 0.15 E-score. With GTAGCCGA the binding signal was -0.00837 E-score. In the case of AATTATTG, the binding signal is reported as -0.251 E-score. GTATGTCA was tested, and the binding signal was -0.171 E-score. Sequence GGACACCC has a binding signal of 0.372 E-score. CTACAGAA gave a binding signal of -0.155 E-score. CAAAAGGG gave a binding signal of -0.0877 E-score. For GACGTTGC, the binding signal was -0.245 E-score. Sequence AGCATAGG has a binding signal of -0.25 E-score. AACAAAAG gave a binding signal of -0.128 E-score. For GTATGTAA, the binding signal was -0.0256 E-score. For CCTGATCA, the binding signal was 0.306 E-score. AACGAGCA was tested, and the binding signal was -0.282 E-score. Sequence CAATTAGC has a binding signal of -0.0527 E-score. Work on TCGGGACA yielded a binding signal of -0.126 E-score. AACCCTCA gave a binding signal of -0.00756 E-score. With ACATTCAT the binding signal was -0.189 E-score. TCATTAAA gave a binding signal of 0.0616 E-score. With CAGCGGAA the binding signal was -0.242 E-score. ATCATTGA showed a binding signal of 0.28 E-score. With GACGGACC the binding signal was -0.167 E-score. GAATTGTC was tested, and the binding signal was -0.247 E-score. GAGACTAA showed a binding signal of -0.128 E-score. For TAGAGTCA, the binding signal was -0.175 E-score. AGCGTATC showed a binding signal of 0.411 E-score. Work on GCACATGA yielded a binding signal of -0.0574 E-score. CCCTATTC showed a binding signal of 0.123 E-score. CAATTTGA gave a binding signal of -0.0895 E-score. AGTCGTGG gave a binding signal of -0.111 E-score. Work on GCTACCAA yielded a binding signal of -0.161 E-score. Work on ACACCTAT yielded a binding signal of 0.26 E-score. In the case of GTAGCCAC, the binding signal is reported as -0.0472 E-score. ATCTGGGG was tested, and the binding signal was 0.176 E-score. ACTCGAGG gave a binding signal of -0.0991 E-score. With AAACACAC the binding signal was -0.0089 E-score. AACGTTCG gave a binding signal of -0.203 E-score. For ATGCCTAG, the binding signal was -0.0374 E-score. ATCGGACC gave a binding signal of 0.229 E-score. With CAAGAACA the binding signal was -0.199 E-score. For TCCGGCCA, the binding signal was -0.00656 E-score. CGTCGTAC gave a binding signal of -0.192 E-score. CGGCCACG gave a binding signal of -0.239 E-score. AGATGCTG gave a binding signal of -0.124 E-score. For AGGCACAA, the binding signal was -0.15 E-score. For ACTGGGCT, the binding signal was -0.19 E-score. CACCACGC showed a binding signal of -0.0173 E-score. CCGAACCC showed a binding signal of 0.00892 E-score. In the case of GCCTGCAC, the binding signal is reported as -0.148 E-score. Sequence AACGGGAG has a binding signal of -0.0232 E-score. Work on AATCCCAC yielded a binding signal of 0.158 E-score. AAGCTACG was tested, and the binding signal was -0.178 E-score. In the case of CTTCACTA, the binding signal is reported as 0.0415 E-score. Work on GTGTACTA yielded a binding signal of 0.0362 E-score. With ACGGAAGG the binding signal was -0.0293 E-score. With ACATACAG the binding signal was 0.11 E-score. CGCATTTC gave a binding signal of -0.18 E-score. Work on TTATTAAA yielded a binding signal of -0.125 E-score. For CAACGTGC, the binding signal was -0.157 E-score. CCAAAACA was tested, and the binding signal was -0.0551 E-score. GGAACCCC showed a binding signal of 0.00272 E-score. AGGATTCC was tested, and the binding signal was -0.0219 E-score. ATTCAGCG was tested, and the binding signal was -0.18 E-score. In the case of CATAGCGC, the binding signal is reported as -0.0875 E-score. AGGTGTCA showed a binding signal of 0.452 E-score. For GATGTTCA, the binding signal was -0.0929 E-score. CCATCAGA gave a binding signal of 0.0179 E-score. In the case of GCCTTCAA, the binding signal is reported as -0.164 E-score. Work on CGTTTACA yielded a binding signal of -0.0482 E-score. AATATTCA was tested, and the binding signal was 0.0039 E-score. AGGTACGG gave a binding signal of 0.0449 E-score. With AATTAGCT the binding signal was -0.208 E-score. Sequence ATTGTGCC has a binding signal of -0.107 E-score. AATCGTTA was tested, and the binding signal was 0.0756 E-score. In the case of GTCTATGA, the binding signal is reported as 0.0257 E-score. In the case of GTAGTCTA, the binding signal is reported as 0.0273 E-score. Sequence AAGACAGG has a binding signal of -0.166 E-score. Work on AAATGCCT yielded a binding signal of -0.0413 E-score.
